# Laboratory results taken from PubChem BioAssay AID1768 (National Center for Advancing Translational Sciences (NCATS), 2009).
# Hit rate of the full screen: of about 270,000 compounds, about 620 (0.23%) were called active. The shares of active, inactive and inconclusive entries below differ from those in the screen. The call rests on the fitted dose curve; in most records, active means well fitted inhibition curve with a large enough effect in the polarisation, with a control signal flat (not every such curve was filed as active); inconclusive means small, poorly fitted or top-dose-only effect, or effect the other way, or a change in a side signal; inactive means no such curve, though single readings can be large or run the other way; the % refers to the polarisation. Potencies of inconclusive entries are doubtful fits and often do not repeat. A note “side channel” means that the fit belongs to a control or component signal, not to the main read-out.
# Target: Menin (Homo sapiens) (UniProt O00255)
# Sequence of UniProt O00255 (O00255 whole entry, looked up): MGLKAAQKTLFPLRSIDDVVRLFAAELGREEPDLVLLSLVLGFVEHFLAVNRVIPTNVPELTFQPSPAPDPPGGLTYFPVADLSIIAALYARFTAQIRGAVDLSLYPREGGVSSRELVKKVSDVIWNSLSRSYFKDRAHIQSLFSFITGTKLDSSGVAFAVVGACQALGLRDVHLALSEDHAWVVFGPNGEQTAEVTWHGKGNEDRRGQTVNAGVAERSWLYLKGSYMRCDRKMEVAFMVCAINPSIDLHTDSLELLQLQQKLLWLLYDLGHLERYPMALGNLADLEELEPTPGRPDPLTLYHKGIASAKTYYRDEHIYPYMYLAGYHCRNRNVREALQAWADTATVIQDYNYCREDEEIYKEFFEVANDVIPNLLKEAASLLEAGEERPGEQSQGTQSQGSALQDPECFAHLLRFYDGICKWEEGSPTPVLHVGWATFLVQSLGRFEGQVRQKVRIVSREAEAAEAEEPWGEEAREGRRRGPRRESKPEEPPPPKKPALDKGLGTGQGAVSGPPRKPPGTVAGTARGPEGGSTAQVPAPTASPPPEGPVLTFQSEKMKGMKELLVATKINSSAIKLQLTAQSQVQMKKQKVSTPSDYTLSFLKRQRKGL
# Experiment: qHTS Assay for Inhibitors Targeting the Menin-MLL Interaction in MLL Related Leukemias: Competition With Texas Red Labeled MLL-derived Mutant Peptide
# Conditions: fluorescence polarization; series mostly up to 61.6 µM
# Potency means the concentration at half of the fitted maximal effect; tags describe the fitted curve by direction and shape or compound fluorescence and quenching.
row,SMILES,Potency
1,CN(C)c1cccc(C(=O)Nc2nnc(Cc3ccccc3)s2)c1,"inconclusive: 28.2 µM [quencher, side channel, single point]"
2,Cc1noc(C)c1-c1nccc(N2CCOCC2)n1,"inconclusive: 6.31 µM [quencher, side channel, single point]"
3,Cc1cc(C(C)(C)C)ccc1OCCN(C)C,inactive
4,Cc1ccc2c(c1)c(=O)c1c3n2CCN(C(=O)CCl)C3CC1 (stereo unspecified),"inconclusive: 25.1 µM [quencher, side channel, partial curve]"
5,O=C(Nc1ccc(Cl)cc1)C1=Cc2ccccc2OC1,"inconclusive: 17.8 µM [quencher, side channel, partial curve]"
6,c1ccc(Nc2nc(NCCN3CCOCC3)nc(Nc3ccccc3)n2)cc1,"inconclusive: 39.8 µM [quencher, side channel, single point]"
7,O=C(Nc1nc(-c2cccs2)cs1)c1ccc(Cl)cc1,"inconclusive: 12.6 µM [quencher, side channel, partial curve]"
8,NC1=NC(=O)/C(=C/c2ccc(Br)cc2)S1,"inconclusive: 10 µM [inhibitor, partial curve, poor fit]"
9,CN(Cc1ccc(F)cc1)S(=O)(=O)c1nnc(NC(=O)c2ccccc2Br)s1,"inconclusive: 39.8 µM [quencher, side channel, partial curve]"
10,C/C=C(/CC[C@@H](C)[C@H]1CCC2C3=CC[C@H]4[C@H](C)[C@@H](O)CC[C@]4(C)C3CC[C@@]21C)C(C)C (stereo partly specified),inactive
11,Cc1ccc(-c2nnc(-c3ccc(NC(=O)Cc4cccs4)cc3)o2)cc1,"inconclusive: 5.01 µM [fluorescent, side channel, single point]"
12,C/C=C/c1ccc(OCCOCCNCc2ccccc2)c(OC)c1,"inconclusive: 7.94 µM [fluorescent, side channel, partial curve]"
13,COc1ccccc1N1CCN(C(=O)c2ccc(C(C)(C)C)cc2)CC1,"inconclusive: 7.08 µM [fluorescent, side channel, partial curve]"
14,Cc1ccc(C(=O)N/C(=C/c2ccc(F)cc2)C(=O)NCc2ccncc2)cc1,inactive
15,O=c1[nH]c2ccc(NCc3ccc(OCc4ccccc4Cl)cc3)cc2[nH]1,"inconclusive: 3.16 µM [quencher, side channel, partial curve]"
16,COc1ccc(/C=N/NC(=O)c2ccc(N)cc2)cc1Cn1cc([N+](=O)[O-])cn1,"inconclusive: 15.8 µM [quencher, side channel, partial curve]"
17,CC(OC(=O)c1c2c(nc3ccccc13)/C(=C\c1ccc3c(c1)OCO3)CCC2)C(=O)Nc1ccc(S(N)(=O)=O)cc1 (stereo unspecified),"inconclusive: 28.2 µM [quencher, side channel, partial curve]"
18,C=CCn1c(SCC(=O)c2ccc(O)c(O)c2)nnc1-c1ccccc1OC,inactive
19,Cc1ccc(NC(=O)c2ccccc2NS(=O)(=O)c2ccc(Cl)s2)cc1S(=O)(=O)N1CCOCC1,"inconclusive: 7.94 µM [quencher, side channel, partial curve]"

row,SMILES,Potency
1,COc1ccc(CCNC(=O)c2ccc3c(=O)n(Cc4ccco4)c(=S)[nH]c3c2)cc1OC,"inconclusive: 35.5 µM [quencher, side channel, single point]"
2,CC(=O)N1N=C(c2ccc3nccnc3c2)CC1c1ccccc1 (stereo unspecified),"inconclusive: 39.8 µM [inhibitor, single point]"
3,CC/C(=N\O)c1ccc(OC)c(OC)c1,"inconclusive: 1 µM [inhibitor, full curve, poor fit]"
4,COC(=O)c1c(NC(=O)CCCC(=O)O)sc(C)c1C,inactive
5,O=C(C1=C[C@H](c2ccc(C(F)(F)F)cc2)C[C@H](OCc2ccc(CO)cc2)O1)N1CCCCCCC1,"inconclusive: 8.91 µM [fluorescent, side channel, partial curve]"
6,CC1CCN(CCC(=O)Nc2ccc(F)c(F)c2)CC1,"inconclusive: 39.8 µM [inhibitor, single point]"
7,COc1cccc(C(=O)c2cc3cc(Cl)ccc3[nH]2)c1,"inconclusive: 39.8 µM [inhibitor, single point]"
8,COc1ccc(CN2CCN(Cc3ccccc3C(F)(F)F)CC2)c(OC)c1,"inconclusive: 14.1 µM [fluorescent, side channel, partial curve]"
9,Cc1ccc2nsnc2c1S(=O)(=O)N1CCN(CCc2ccccc2)CC1,"inconclusive: 39.8 µM [inhibitor, single point]"
10,CCCCN(C(=O)c1c(C)[nH]c(C(=O)OCC)c1C)c1ccccc1,"inconclusive: 1.58 µM [fluorescent, side channel, full curve]"
11,COC(=O)CC1=NN(c2ccc(OC)cc2)C(=O)C1,"inconclusive: 14.1 µM [quencher, side channel, partial curve]"
12,CC1=NN(c2ccc(C)c(C)c2)C(=O)C1C(c1cccc(O)c1)C1C(=O)N(c2ccc(C)c(C)c2)N=C1C (stereo unspecified),"inconclusive: 20 µM [quencher, side channel, partial curve]"
13,S=C(c1ccc(N2CCCC2)c(Br)c1)N1CCCCC1,"inconclusive: 35.5 µM [fluorescent, side channel, single point]"
14,Cc1ccc(C(=O)Nc2ccc(S(=O)(=O)O)c3cc(S(=O)(=O)O)cc(S(=O)(=O)O)c23)cc1NC(=O)c1cccc(NC(=O)Nc2cccc(C(=O)Nc3cc(C(=O)Nc4ccc(S(=O)(=O)O)c5cc(S(=O)(=O)O)cc(S(=O)(=O)O)c45)ccc3C)c2)c1,inactive
15,O=C(CSc1nc(-c2ccccc2)cs1)Nc1cccc([N+](=O)[O-])c1,"inconclusive: 2.82 µM [quencher, side channel, full curve]"
16,COc1ccc(NC(=O)Nc2nc3c(s2)CCCC3)cc1,"inconclusive: 35.5 µM [quencher, side channel, single point]"
17,Cc1ccc(C2=CC(c3cccs3)n3nnnc3N2)cc1 (stereo unspecified),"inconclusive: 2 µM [fluorescent, side channel, full curve, poor fit]"
18,CC(=O)Nc1ccc(S(=O)(=O)Nc2ccc([N+](=O)[O-])cc2)cc1,"inconclusive: 28.2 µM [quencher, side channel, partial curve]"
19,CC(C)c1ccc(NC(=O)CCNS(=O)(=O)c2cccc3nonc23)cc1,"inconclusive: 28.2 µM [quencher, side channel, single point]"

row,SMILES,Potency
1,Nc1ccc(-c2nc3ccc(N)cc3o2)cc1,"inconclusive: 22.4 µM [quencher, side channel, single point]"
2,NC(=S)n1[nH]c(-c2ccc([N+](=O)[O-])cc2)c(N=Nc2cccc([N+](=O)[O-])c2)c1=O,"inconclusive: 3.55 µM [quencher, side channel, full curve]"
3,Cc1cc(C(C)(C)C)cc(C)c1C[n+]1ccc2ccccc2c1,"inconclusive: 10 µM [fluorescent, side channel, partial curve]"
4,CC1CCCCN1Cc1nc2ccccc2c(=O)[nH]1 (stereo unspecified),"inconclusive: 39.8 µM [inhibitor, single point]"
5,O=C(O)c1cccc(NC(=O)c2ccc3c(c2)C(=O)N(C2CCCCC2)C3=O)c1,"inconclusive: 20 µM [quencher, side channel, partial curve]"
6,COC(=O)c1c(NC(=S)Nc2ccc(F)cc2[N+](=O)[O-])sc2c1CCCCC2,"inconclusive: 28.2 µM [quencher, side channel, partial curve]"
7,c1ccc(N2N=C(c3cccs3)CC2c2ccco2)cc1 (stereo unspecified),"inconclusive: 14.1 µM [quencher, side channel, partial curve]"
8,Oc1c(C=Nc2ccccc2)sc(=S)n1Cc1ccccc1,"inconclusive: 11.2 µM [quencher, side channel, partial curve]"
9,COc1ccc(S(=O)(=O)N2CCN(S(=O)(=O)c3ccc4c(c3)OCCO4)CC2)cc1,inactive
10,COc1ccc(NCc2cc(=O)oc3cc(NC(C)=O)ccc23)cc1,"inconclusive: 20 µM [quencher, side channel, partial curve]"
11,COc1ccc(COC(=O)C2=C(C)NC(=O)NC2c2ccccc2OC(C)C)cc1 (stereo unspecified),"inconclusive: 12.6 µM [fluorescent, side channel, partial curve]"
12,Cc1ccccc1OCC(=O)Nc1cc(S(=O)(=O)N2CCCCC2)ccc1N1CCN(C)CC1,"inconclusive: 8.91 µM [fluorescent, side channel, partial curve]"
13,Cc1ccnc(NS(=O)(=O)c2ccc(NC(=O)c3cc(-c4ccc(Br)cc4)nc4ccccc34)cc2)n1,"inconclusive: 10 µM [quencher, side channel, partial curve]"
14,Cc1ccc(N=Cc2ccc(N(C)C)cc2)cc1,inactive
15,CSc1nc2ccc3nc(NC(=O)c4cccs4)sc3c2s1,"inconclusive: 6.31 µM [quencher, side channel, partial curve]"
16,CCc1ccc(C2=NNC(=Nc3cccc(S(=O)(=O)N(C)C)c3)SC2)cc1,"inconclusive: 28.2 µM [inhibitor, partial curve]"
17,Cn1cccc1Cc1nnc(SCC(=O)N2CCN(c3ccccc3)CC2)n1-c1ccc(F)cc1,"inconclusive: 28.2 µM [inhibitor, partial curve]"
18,CN(C)c1ccc(C(CNC(=O)c2ccccc2)c2c[nH]c3ccccc23)cc1 (stereo unspecified),"inconclusive: 25.1 µM [quencher, side channel, partial curve]"
